Assay [1] addresses T1, human PD-L1 protein (human, UniProt Q9NZQ7 fragment, limits assumed).
T1 construct: also called PD-L1 antigen

In assay [2] the target is T1, human PD-L1 protein. In words: ForteBio BLI as in Example 5, human PD-L1. A general note: BLI is a label-free optical method that tracks binding on a fibre tip over time.

Read-outs that look alike come from different tables or passages of the source.

What is called Kd is the concentration at which binding is half-saturated. A higher Kd goes with lower affinity. As usually defined, the koff is the rate constant with which the complex falls apart. Broadly, the kon is a measure of how fast the partners come together. Higher therefore signals faster complex formation.

T1 sequence (Q9NZQ7 19-238 limits assumed): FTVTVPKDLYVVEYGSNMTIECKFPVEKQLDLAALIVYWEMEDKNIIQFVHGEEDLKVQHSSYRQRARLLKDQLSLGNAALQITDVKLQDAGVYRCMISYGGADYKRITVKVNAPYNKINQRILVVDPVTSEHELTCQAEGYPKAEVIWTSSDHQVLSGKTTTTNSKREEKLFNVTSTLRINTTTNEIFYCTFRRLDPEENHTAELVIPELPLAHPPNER

B1: C-Ye-17 (Fc fusion)
chain: QVQLQESGGGLVQAGGSLRLSCVASGRTVSNYAMGWFRQAPGKEREFVARITGSGSSTFYADSVKGLFTISRNNLSNTVYLQMNSLKREDTAVYYCAADRWRSMVTRSDPREYENWGQGTQVTVSS[omitted - human IgG1 Fc with changes]
In the case of B1, in assay [1], the Kd is 396 nM, the koff came out at 0.0102 s⁻¹ and the on-rate constant (kon) came to 25800 M⁻¹ s⁻¹.

B2: C-Ye-24 (Fc fusion)
chain: QVQLQESGGGVVQAGDSLRLSCVASGRTVSNYAMGWFRQAPGKEREFVARITGSGRTTYYADSVKGRFTISRNNLSNTVYLQMNSLKREDTAVYYCAADRWRSMVTRSDPREYENWGQGTQVTVSS[omitted - human IgG1 Fc with changes]
For the molecule B2, in assay [1], binding was characterised by a dissociation constant (Kd) of 19.5 nM, the koff came out at 0.00151 s⁻¹ and the kon amounted to 77100 M⁻¹ s⁻¹.

B3: C-Ye-26 (Fc fusion)
chain: QVQLQESGGGLVQAGGSLRLSCVASGRTVSNYAMGWFRQAPGKEREFVARITGSGSSTFYADSVKGRFTISRNNLSNTVYLQMNSLKREDTAVYYCAADRWRSMVTRSDPRDYENWGQGTQVTVSS[omitted - human IgG1 Fc with changes]
In assay [1], B3 gave a Kd of 34.1 nM, a koff of 0.00321 s⁻¹ and an on-rate (kon) of 94100 M⁻¹ s⁻¹.

B4: C-Ye-20 (Fc fusion)
chain: QVQLQESGGGLVQAGGSLRLSCVASGRTVSNYAMGWFRQAPGKEREFVARITGSGSSTFYADSVKGRFTISRDNAKNAVYLQMNSLKPEDTAVYYCAADRWRSMVTRSYPREYENWGQGTQVTVSS[omitted - human IgG1 Fc with changes]
As to B4, in assay [1], the Kd is 48.6 nM, the off-rate (koff) was 0.0044 s⁻¹ and the kon came out at 90600 M⁻¹ s⁻¹.

B5: C-Ye-27 (Fc fusion)
chain: QVQLQESGGGLVQAGGSLRLSCAASGRTFSRYAVGWFRQAPGLGRDFVAAITWSGGYTYYADSVKGRFTISRDNAKNTVYLQMNSLKPEDTAVYYCAVDTRNVIGPRAGDYWGQGTQVTVSS[omitted - human IgG1 Fc with changes]
Consider B5, for which, in assay [1], the dissociation constant (Kd) is 57.9 nM, the koff was determined as 0.00315 s⁻¹ and the association rate constant (kon) came to 54500 M⁻¹ s⁻¹.

B6: C-Ye-42 (Fc fusion)
chain: QVQLQESGGGLVQAGGSLRLSCAASGRTGSRYAVGWFRQAPGLGRDFVAAITWSGGYTYYADSVKGRFTISRDNAKNTMYLQMNSLKPEDTAVYYCAVDTRNVIGPRAGDYWGQGTQVTVSS[omitted - human IgG1 Fc with changes]
In assay [1], B6 registered an equilibrium dissociation constant (Kd) of 38.9 nM, a koff of 0.00222 s⁻¹ and an on-rate (kon) of 57000 M⁻¹ s⁻¹.

B7: C-Ye-30 (Fc fusion)
chain: QVQLQESGGGLVQAGGSLRLSCAASGSTFSRYAVGWFRQAPGLGRDFVAAITWSGGYTYYADSVKGRFTISRDNAKNTVYLQMNSLKPEDTAVYYCAVDTRNVIGPRAGDYWGQGTQVTVSS[omitted - human IgG1 Fc with changes]
Take B7: in assay [1], the Kd came out at 39.4 nM, the koff turned out to be 0.0021 s⁻¹ and the kon was 53200 M⁻¹ s⁻¹.

B8: C-Ye-32 (Fc fusion)
chain: QVQLQESGGGLVQAGGSLRLSCAASGRTFSRYAVGWFRQAPGLGRDFVAAITWSGGYTYYADSVKGRFTISRDNAKNTIYLQMNSLNVEDTGVYYCAVDTRNVIGPRAGDYWGQGTQVTVSS[omitted - human IgG1 Fc with changes]
Consider B8, for which, in assay [1], the dissociation constant (Kd) was 44.3 nM, the koff came out at 0.00258 s⁻¹ and the kon amounted to 58300 M⁻¹ s⁻¹.

B9: C-Ye-34 (Fc fusion)
chain: QVQLQESGGGLVQAGGSLRLSCAASGRTFSRFAMGWFRQAPGKEREFVAAISWSGGMIYYTDSVKGRFTISRDNAKNMLYLQMNSLKPEDTAVYYCAVDTRNVIGPRAGDYWGQGTQVTVSS[omitted - human IgG1 Fc with changes]
For the molecule B9, in assay [1], binding was characterised by a dissociation constant (Kd) of 24.4 nM, the koff was determined as 0.00191 s⁻¹ and the kon was found to be 78100 M⁻¹ s⁻¹.

B10: C-Ye-39 (Fc fusion)
chain: QVQLQESGGGLVQAGGSLRLSCTASGRAFSVYPMAWFRQAPGKEREFIARLTYTSNTFYADSVKGRFTISRDNAKNTVYLQMNSLKPEDTAVYYCAVENRSSSWSLQSPARYDDWGQGTQVTVSS[omitted - human IgG1 Fc with changes]
Regarding B10, in assay [1], the Kd was determined as 503 nM, the dissociation rate constant (koff) was determined as 0.0107 s⁻¹ and the association rate constant (kon) turned out to be 21200 M⁻¹ s⁻¹.

B11: C-Ye-02 (Fc fusion)
chain: QVQLQESGGGLVQAGGSLRLSCAASGRTFNNSAMGAMGWFRQAPGKEREFVATITWSSGSSFYANSVKGRFTISRDNAKNTVYLQMNSLKPEDTAVYYCASRKLGGVVTVVTSYDFWGQGTQVTVSS[omitted - human IgG1 Fc with changes]
In assay [1], B11 yielded a Kd of 79.8 nM, an off-rate (koff) of 0.00375 s⁻¹ and a kon of 46900 M⁻¹ s⁻¹.

B12: C-Ye-06 (Fc fusion)
chain: QVQLQESGGGLVQPGGSLRLSCAASGRTFDNYAMGAMGWFRQAPGKEREFVATITWSSGSSFYANSVKGRFTISRDNAKNTVYLQMNSLKPDDTAVYYCASRKLGGVVTVVTSYDFWGQGTQVTVSS[omitted - human IgG1 Fc with changes]
In assay [1], B12 had a Kd of 134 nM, a koff of 0.00581 s⁻¹ and an association rate constant (kon) of 43500 M⁻¹ s⁻¹.

B13: C-Ye-18-6 (Fc fusion)
chain: EVQLQESGGGLVQPGGSLRLSCAASGFTFSSYWMYWLRQAPGKGLEWVSSISGSSSSTYYRDSVKGRFTISRDNAKNTLYLQMNSLKSEDTAVYYCAKDPGGYAKGQGTQVTVSS[omitted - human IgG1 Fc with changes]
Consider B13, for which, in assay [2], binding was put at a Kd of 6 nM, the koff came out at 0.00139 s⁻¹ and the on-rate (kon) worked out at 232000 M⁻¹ s⁻¹.
